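Growth was measured after 48 h exposure to one concentration of compound in 96-well plates. Values under 10 count as active.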 Some entries of the source have several records that differ or are many. Only these are listed. An entry can have further records. These are repeated runs of one drug, at its own concentration, as given; each value is one run. Additions like (4×) count equal records among those shown.
System: M19-MEL melanoma
Assay: NCI-60 one-dose screen, 48 h (100 = growth as untreated, 0 = no growth, -100 = all killed)
Conditions: 2.5 mM
Experimental: Growth inhibition of the M19-MEL human tumor cell line is measured as a screen for anti-cancer activity. Cells are grown in 96 well plates and exposed to the test compound for 48 hours. Compounds are tested at a single concentration, which is 10^-5 M for most compounds. The reported endpoint is percent growth (GI% or GIPRCNT), where numbers from 0 - 100% represent growth inhibition, and numbers from -100% - 0 represent cell death. For example, a value of 40 represents 60% growth inhibition. A value of 0 means no net growth occurred over the course of the experiment. A value of -40 indicates 40% of cells at the beginning of the experiment died by the end of the experiment. A value of -100 means all cells are dead at the end of the experiment.
NCI-60 Human Tumor Cell Lines Screen was performed using the standard one-dose NCI protocol, which is described in more detail at https://dtp.cancer.gov/discovery_development/nci-60/default.htm.
Compounds with GIPRCNT values below 10 were considered active. Activity score was based on GIPRCNT using the following formula: […]
Score is 0 for GIPRCNT values of 100 or above, 50 for GIPRCNT values of 0, and 100 for GIPRCNT values of -100.

O=c1[nH]cc(F)c(=O)[nH]1
growth (runs of 1991): 25, 14.7, 16.9, -40.5, -29.6, 12.9, 16.6, 8.75, 15.3, -16.1% | growth (runs of 1992): 16.7, 26.8 (2×), 23.8, 36.8, 2.61, 3.33, 8.52, 7.54, -8.7, 21.8, 9.52, 12.2, 25.5, 7.79, 8.05, 2.57, -0.457, 18.7, 10.2, 8.62, 3.6, 12.8 (2×), 6.49, 89, 20, 16.9, 22, 17.3, 12.7 (2×), 19.2 (2×), 25.7, 14, 16.4, 4.38, 5.05, 0.635, 17.9, 15.5, 15.6, 11.4 (2×), 6.39, 7.56, 11.2, 8.4, 9.81, 22.1, 2.5, 1.97, 5.72, 4.95, 16.3, 11.1, 17.4, 5.2, 6.91, 3.82, 12.1, 10.6 (2×), 14.1, 12.5, 15.7, 3.89, 4.74, 8.83, 8.89, -5.78, 19.9, 19.3, 6.56, 10.3, 20.7, -19, 5.96, 20.5, 13.7, 9.86, 25.1, 9.59, 15.3, 41.8, 21.4, 6.09, 17, 19.8%

From PubChem BioAssay AID1794762 (DTP/NCI, 2022)
